Data from publication PMC4752240.
No constants are given. Whether binding was seen depends on the method and setting. Tags and fused reporters may be left off the sequences shown.

How the values were obtained:
Experiment in all cases: two-hybrid; bait fused with the GAL4 DNA binding domain (pDEST32), prey fused with the GAL4 activation domain (pDEST22); mating of yeast strains AH109 and Y187; growth on -His (weak interaction) or -His -Ade (strong interaction); three replicates
[1] = target: T1, APC10, yeast two-hybrid fusion (UniProt Q9ZPW2)
T1 sequence: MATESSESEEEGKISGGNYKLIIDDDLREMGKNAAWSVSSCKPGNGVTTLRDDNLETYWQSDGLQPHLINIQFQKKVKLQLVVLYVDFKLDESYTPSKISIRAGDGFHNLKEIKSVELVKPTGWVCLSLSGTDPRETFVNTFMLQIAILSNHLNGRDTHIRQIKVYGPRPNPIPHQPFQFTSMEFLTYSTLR

[2] = target: T2, APC11, yeast two-hybrid fusion (UniProt Q9M9L0)
T2 sequence: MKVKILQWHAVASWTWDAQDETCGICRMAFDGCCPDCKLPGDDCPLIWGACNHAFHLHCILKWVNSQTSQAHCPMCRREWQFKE

[3] = target: T3, APC7, yeast two-hybrid fusion (UniProt Q8VY89)
T3 sequence: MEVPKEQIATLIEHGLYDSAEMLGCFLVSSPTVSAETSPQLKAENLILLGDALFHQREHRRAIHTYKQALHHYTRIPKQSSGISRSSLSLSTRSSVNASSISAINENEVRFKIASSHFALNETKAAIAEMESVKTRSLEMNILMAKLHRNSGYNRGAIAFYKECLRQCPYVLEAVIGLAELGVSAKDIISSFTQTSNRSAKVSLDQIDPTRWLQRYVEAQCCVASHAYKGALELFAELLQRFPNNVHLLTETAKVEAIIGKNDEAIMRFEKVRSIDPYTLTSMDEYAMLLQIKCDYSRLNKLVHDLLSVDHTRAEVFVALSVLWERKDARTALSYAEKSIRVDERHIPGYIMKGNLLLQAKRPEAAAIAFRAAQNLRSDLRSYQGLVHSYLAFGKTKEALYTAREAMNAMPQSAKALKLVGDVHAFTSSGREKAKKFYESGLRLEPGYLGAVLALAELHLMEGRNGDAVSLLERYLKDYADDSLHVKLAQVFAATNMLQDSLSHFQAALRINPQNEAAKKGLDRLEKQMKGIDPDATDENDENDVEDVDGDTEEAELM

[4] = target: T4, CCS52A1, yeast two-hybrid fusion (UniProt Q8L3Z8)
T4 sequence: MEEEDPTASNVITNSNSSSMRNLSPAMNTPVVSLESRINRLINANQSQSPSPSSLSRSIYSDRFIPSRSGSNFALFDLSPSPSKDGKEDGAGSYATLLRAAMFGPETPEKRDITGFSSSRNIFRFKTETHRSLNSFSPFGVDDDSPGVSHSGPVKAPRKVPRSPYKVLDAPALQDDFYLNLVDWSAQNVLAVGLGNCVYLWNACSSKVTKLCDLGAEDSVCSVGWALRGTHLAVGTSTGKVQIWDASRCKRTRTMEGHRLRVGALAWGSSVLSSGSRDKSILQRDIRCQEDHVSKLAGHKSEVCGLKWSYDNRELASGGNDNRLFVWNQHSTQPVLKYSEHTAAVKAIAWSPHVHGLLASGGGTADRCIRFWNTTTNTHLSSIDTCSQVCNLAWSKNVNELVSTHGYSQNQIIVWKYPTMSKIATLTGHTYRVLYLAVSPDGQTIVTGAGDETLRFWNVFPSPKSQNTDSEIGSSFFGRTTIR

[5] = target: T5, CCS52A2, yeast two-hybrid fusion (UniProt Q8VZS9)
T5 sequence: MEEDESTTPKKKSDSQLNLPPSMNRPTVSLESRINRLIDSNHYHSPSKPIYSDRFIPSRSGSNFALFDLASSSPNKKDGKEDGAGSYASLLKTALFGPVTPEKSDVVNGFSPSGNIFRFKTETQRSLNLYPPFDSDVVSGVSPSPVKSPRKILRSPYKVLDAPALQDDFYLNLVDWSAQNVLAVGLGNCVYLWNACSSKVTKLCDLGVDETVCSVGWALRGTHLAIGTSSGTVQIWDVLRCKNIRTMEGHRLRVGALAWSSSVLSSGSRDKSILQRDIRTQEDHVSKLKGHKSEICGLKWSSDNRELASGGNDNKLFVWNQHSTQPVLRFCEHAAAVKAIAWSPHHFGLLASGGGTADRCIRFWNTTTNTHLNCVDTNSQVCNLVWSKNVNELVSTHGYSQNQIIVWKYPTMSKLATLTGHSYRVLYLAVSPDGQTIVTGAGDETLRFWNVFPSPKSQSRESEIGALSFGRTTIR

[6] = target: T6, SAMBA, yeast two-hybrid fusion (UniProt Q9C613)
T6 sequence: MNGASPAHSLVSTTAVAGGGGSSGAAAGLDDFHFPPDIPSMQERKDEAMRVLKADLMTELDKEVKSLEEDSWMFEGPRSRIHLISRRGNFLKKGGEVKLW

binding [1]: no binding
binding [2]: no binding
binding [3]: no binding
binding [4]: no binding
binding [5]: no binding
binding [6]: no binding
B1: TDM1 (THREE DIVISION MUTANT1), yeast two-hybrid fusion (protein, UniProt Q9SUC3 1-434)
chain: MCPCVERRAPPGVYYTPPPARTSDHVAAMPMTERRRPPYSCSSSSERRDPFHIVHKVPSGDSPYVRAKHAQLIDKDPNRAISLFWTAINAGDRVDSALKDMAVVMKQLGRSDEGIEAIKSFRYLCSFESQDSIDNLLLELYKKSGRIEEEAVLLEHKLQTLEQGMGFGGRVSRAKRVQGKHVIMTIEQEKARILGNLGWVHLQLHNYGIAEQHYRRALGLERDKNKLCNLAICLMRMSRIPEAKSLLDDVRDSPAESECGDEPFAKSYDRAVEMLAEIESKKPEADLSEKFYAGCSFVNRMKENIAPGTANKNYSDVSSSPASVRPNSAGLYTQPRRCRLFEEETRGAARKLLFGKPQPFGSEQMKILERGEEEPMKRKKLDQNMIQYLHEFVKDTADGPKSESKKSWADIAEEEEAEEEEEERLQGELKTAEM
